# Experimental data reported in the supplement of paper PMC3334620.
# Whole data set: some 33,000 sequences, median “E-score (-0.5 to 0.5)” near -0.036, cut for the highest 2% near 0.37. The list shows a part of the results.
# Target: T1, Yer064c (UniProt P40041)
# T1 sequence: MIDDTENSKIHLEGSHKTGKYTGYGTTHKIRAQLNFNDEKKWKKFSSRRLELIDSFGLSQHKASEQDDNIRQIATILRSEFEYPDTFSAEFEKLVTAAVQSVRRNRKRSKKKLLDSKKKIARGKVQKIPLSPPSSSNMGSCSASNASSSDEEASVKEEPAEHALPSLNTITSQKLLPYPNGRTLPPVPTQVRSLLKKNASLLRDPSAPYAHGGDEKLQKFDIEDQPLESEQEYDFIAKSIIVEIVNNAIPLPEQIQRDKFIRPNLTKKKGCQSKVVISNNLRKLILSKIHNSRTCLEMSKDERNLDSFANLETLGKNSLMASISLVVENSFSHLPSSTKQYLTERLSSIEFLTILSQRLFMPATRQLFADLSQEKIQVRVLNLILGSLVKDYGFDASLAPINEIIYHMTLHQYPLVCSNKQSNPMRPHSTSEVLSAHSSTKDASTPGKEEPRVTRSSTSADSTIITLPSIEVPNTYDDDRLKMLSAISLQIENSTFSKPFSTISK
# Experiment: PBM E-score (8-mer binding enrichment) (E-score (-0.5 to 0.5)); higher = stronger / more preferred TF binding; most listed sequences are background and not binding sites
# Details: protein concentration: 200 nM; construct: GST-full length
# Summary of the method: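 Each ungapped eight-base word and its reverse complement, pooled, received an E-score from the Universal PBM Analysis Suite. Underlying scans, normalised with masliner, recorded fluorescent anti-GST bound to GST-tagged yeast transcription factors. These were applied at about 100-200 nM to universal all-10-mer Agilent arrays double-stranded by primer extension.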
row,Sequence,PBM E-score
1,AAGGGCAA,-0.178
2,ACTCTACG,0.0462
3,GAAGGACA,-0.0606
4,ACAGCGTA,-0.235
5,CAATCAAC,0.196
6,ACTTGTCG,-0.188
7,GGAAACCA,-0.064
8,GGCCTGAA,-0.266
9,AAATGTAA,0.125
10,AGTTTCTC,-0.105
11,ACCATTTC,0.00669
12,CCCGTAAG,-0.139
13,AACCCATC,0.0717
14,ATGGACAT,-0.0808
15,CCTCTTTA,0.0254
16,GTAGTGTA,-0.0101
17,CCTAGATC,-0.134
18,GCTAAAGC,-0.0655
19,ATTATTGG,0.0609
20,ACTCTGCA,0.148
21,CGTACAGC,-0.242
22,GCGAGCCA,0.161
23,CAGATCGG,-0.21
24,ATCACCTG,0.167
25,TAAGTGAA,0.02

row,Sequence,PBM E-score
1,GGCAAGAC,-0.163
2,CGCCACCC,-0.128
3,GACCCAAA,-0.0506
4,GTTATTCA,0.147
5,ATGCACTA,0.00971
6,AGCGATAT,-0.122
7,GCCCTCCC,-0.383
8,CCAATTGA,0.0265
9,CAAAATAC,0.0892
10,CGGTATAA,-0.00073
11,ATATCCTG,-0.181
12,CGGTTAAC,0.0189
13,AGGCCTAC,-0.19
14,AAGCCGTG,-0.0669
15,CGGGTTTC,-0.167
16,AACAGATT,0.0753
17,GACCTCAC,0.0931
18,CATCGTTA,-0.0177
19,ATTCATTA,0.21
20,CATTGTGG,-0.0124
21,TCCCAGCA,-0.0166
22,GAGGGCCA,-0.0553
23,AAAACGCC,-0.112
24,CTGTTGCA,-0.0513
25,AGACTGGC,-0.0548

row,Sequence,PBM E-score
1,ACCTCTTC,-0.00529
2,GCTATCTA,-0.0535
3,AAAACACT,-0.0988
4,CTTCACTC,0.0415
5,GGCTTACC,-0.179
6,CGTTAAGC,0.0294
7,CCAAGTAC,-0.0857
8,AGGCCCTC,-0.152
9,AACGAGAT,-0.0275
10,AGAACGTC,0.0892
11,GATTCTCA,0.221
12,AGGGACGC,-0.21
13,ACCTGCGC,-0.343
14,AGGCATCG,-0.125
15,GAGTCTGC,0.312
16,AAGCTGTC,-0.12
17,CCCTAACA,-0.0101
18,GAACGTAA,-0.0281
19,CAGCCTTC,-0.154
20,GTACTGGA,0.0546
21,AGTCCCGC,0.13
22,ACGTTGGA,0.00333
23,CACCTATA,-0.0539
24,AGACGTCG,-0.185
25,GACGGTAA,-0.284

row,Sequence,PBM E-score
1,ACAAAGGA,-0.046
2,CAATTAGG,0.00698
3,CTCCAATA,0.147
4,ATCGGCCG,-0.0923
5,GAAGCGAA,-0.0936
6,AGTATCGG,-0.0639
7,ACATTCGT,0.00692
8,ACAGACTG,0.0873
9,ATGATTAA,0.472
10,TCACACGA,0.217
11,GCCCTGAC,0.0266
12,TACACTGA,0.215
13,GTAAAGAC,0.147
14,CCCTCAAA,-0.0974
15,ATTAATTC,0.16
16,AGGGATCA,0.118
17,AGCAACCC,-0.216
18,CACTGAGC,0.0406
19,GTGAGAAC,-0.00457
20,AACGGGGT,-0.0766
21,AGAAAACA,0.122
22,ACAAATGC,-0.00989
23,CGGAAACC,-0.0658
24,AAAGGACA,0.0814
25,GTCATGGA,0.292

row,Sequence,PBM E-score
1,TAGCCGCA,-0.0712
2,ATCAAATC,0.21
3,CAGGACAG,0.0711
4,GAGGCCAA,-0.113
5,AATTGAGA,0.223
6,CCGATTAC,-0.132
7,TACCACTA,-0.137
8,AAGAAACA,-0.0402
9,GGGCACCC,-0.269
10,ACCAGTAT,-0.153
11,AATATCGT,0.0622
12,GTAGACCA,-0.0117
13,ATTGGATA,0.107
14,CGTTTCAA,-0.0471
15,TGCTAACA,0.00189
16,ATCTTATG,0.122
17,ACCTGGCA,-0.145
18,AAATTTCA,-0.0248
19,ACTGGGTA,-0.04
20,AGGGCAGG,-0.162
21,CGGGAGGA,-0.0366
22,GATGGCGA,-0.0113
23,AGAATACA,0.0199
24,GAGACCAA,-0.0383
25,CAATGACA,-0.0216

row,Sequence,PBM E-score
1,CTACAGCA,-0.0176
2,GATCTTCA,0.021
3,GCCTTTTA,-0.0751
4,ACTAAAAA,0.249
5,AATTAAGA,0.135
6,CGTTCTAG,-0.0703
7,CTAGACAG,-0.0516
8,ACTCCCAA,0.205
9,CTCGAAAG,-0.00118
10,ACTAGTAC,0.196
11,CGATCACA,0.0941
12,GAGACATA,0.334
13,GCATTCAA,-0.127
14,CCCTAATA,-0.0692
15,GCTGTTGA,0.0881
16,GTGTGCAA,0.00092
17,ACGATGAG,0.219
18,ATATTACG,0.106
19,CGGACGCA,-0.134
20,CCACCCCA,-0.0763
21,CATAAGTA,0.142
22,AATGGTAA,0.0983
23,CAAACTGA,0.109
24,CGACCGCG,-0.00452
25,ACACACCT,0.0951

row,Sequence,PBM E-score
1,CGCCTGAG,-0.0417
2,GAAATAAA,-0.0293
3,GCACGGCC,-0.211
4,ATGGGACA,-0.196
5,ACTTACTC,0.236
6,CATTAGAA,0.173
7,ACATTAGC,-0.177
8,ACTATGAT,0.354
9,CGCCCGTA,-0.257
10,CGCCTCGC,-0.087
11,AATGATCG,-0.166
12,ATTTATAG,0.0751
13,ACCACGAG,-0.0782
14,AGCTTGTC,-0.21
15,AGACGGGG,-0.239
16,TAATTATA,0.172
17,CTGAATAA,0.165
18,GGCGAAGA,-0.0567
19,CCCCTACG,-0.0389
20,CGCACTAC,-0.267
21,CCAGCTTC,-0.0446
22,ACCACTTG,-0.0296
